Data: article PMC6919601, “Identification of Plasmodium dipeptidyl aminopeptidase allosteric inhibitors by high throughput screening” (PLoS ONE, 2019)
Among all 110,000 compounds or so, about 230 (0.21%) showed an effect of 50% or more. The list shows a part of the results.

target: DPAP1 (Plasmodium falciparum, UniProt Q8IIJ9); assay: primary screen, percent inhibition; read by cleavage of a fluorogenic dipeptide substrate; higher = more effect of the substance; design: species or system P. falciparum D10 trophozoite lysates; single well
Sequence (Q8IIJ9 whole entry, looked up): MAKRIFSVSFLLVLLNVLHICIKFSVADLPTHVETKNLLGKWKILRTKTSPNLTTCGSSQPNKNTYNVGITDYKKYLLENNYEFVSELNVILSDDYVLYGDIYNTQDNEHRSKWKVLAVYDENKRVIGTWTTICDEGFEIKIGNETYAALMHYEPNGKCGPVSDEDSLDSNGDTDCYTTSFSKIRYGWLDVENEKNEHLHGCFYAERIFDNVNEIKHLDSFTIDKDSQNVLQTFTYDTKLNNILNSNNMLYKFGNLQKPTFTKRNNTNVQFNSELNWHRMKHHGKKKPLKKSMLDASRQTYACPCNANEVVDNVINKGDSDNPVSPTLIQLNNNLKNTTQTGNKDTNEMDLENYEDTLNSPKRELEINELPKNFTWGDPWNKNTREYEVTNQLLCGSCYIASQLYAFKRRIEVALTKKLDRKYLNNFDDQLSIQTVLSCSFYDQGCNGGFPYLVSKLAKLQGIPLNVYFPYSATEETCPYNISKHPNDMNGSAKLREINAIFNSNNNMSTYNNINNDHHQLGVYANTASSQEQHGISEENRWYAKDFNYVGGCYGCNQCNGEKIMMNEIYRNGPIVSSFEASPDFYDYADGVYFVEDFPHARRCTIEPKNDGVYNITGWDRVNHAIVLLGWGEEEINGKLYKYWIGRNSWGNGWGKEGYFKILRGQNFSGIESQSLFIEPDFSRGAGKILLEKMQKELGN
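Note: 30 min substrate incubation versus DMSO and 10 µM JCP410 controls.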

SMILES	% Inhibition @ 10 uM [%]
O=C(CSc1nc(-c2cccs2)cc(C(F)(F)F)n1)NCc1cccs1	1.39
NC(=O)C1CCCN(Cc2ccc(Cl)cc2Cl)C1 (stereo not drawn)	-1.5
Nc1c(NCCN2CCCC2)c2ccccc2oc1=O	-4.21
COc1ccc(S(=O)(=O)N(CC(=O)N2CCCCCC2)c2ccc(Cl)cc2)cc1	1.27
CCn1c(C)c(C)c2cc(C(=O)N3CCc4ccccc4C3)ccc21	0.399
COc1cccc(CN2CCN(C(=O)c3cccc(Cl)c3)CC2)c1OC	-1.77
CC(NC(=O)c1cc2c(O)nc3ccccc3c2s1)c1ccc2c(c1)OCCO2 (stereo not drawn)	4.51
Cc1ccc(S(=O)(=O)N2CCc3ccccc3C2)cc1[N+](=O)[O-]	0.215
CC1=NN(C(=O)c2ccccc2)C(O)(c2ccc(Cl)cc2)C1 (stereo not drawn)	-3.09
O=C(Nc1ccc(Cl)cc1)N1CCc2ccccc21	3.24
CC1=CC(C)C(C2OCCN2CC2COC3(CCCCC3)O2)C(C)C1 (stereo not drawn)	-9.49
CC1=CCC(C(=O)O)C(C(=O)NCc2ccc3c(c2)OCO3)C1 (stereo not drawn)	-2.98
C=CCN1C(=O)c2oc3cc(C)cc(C)c3c(=O)c2C1c1ccccc1F (stereo not drawn)	1.67
CC(C)=C(NC(=O)c1ccccc1)C(=O)NCCCC(=O)O	4.38
COc1ccccc1Oc1nc2c(C)cccn2c(=O)c1/C=C(\C#N)C(=O)N1CCCCC1	-5.1
CS(=O)(=O)c1ncc(Cl)c(C(=O)Nc2nnc(SCc3ccc(F)cc3)s2)n1	5.29
COc1ccc(-c2nc(-n3c(C)c(C(C)=O)c(C(C)=O)c3C)sc2C)cc1OC	-4.62
CCN(CC)C(=O)/C(=C/c1cn(CC)c2ccccc12)NC(=O)c1ccco1	3.24
COc1cc(-c2nc(SCC(=O)NC3CCCC3)c(-c3ccccc3)[nH]2)cc(OC)c1OC	5.06
O=C1S/C(=C\c2cc(Cl)ccc2O)C(=O)N1Cc1ccc(F)cc1	5
O=C(NCCCNCCCNC(=O)c1ccncc1)c1ccncc1	-9.83
COc1ccccc1OC1OCC(O)C(O)C1O (stereo not drawn)	6.06
CC(C)c1nnc(NC(=O)c2ccc(C(=O)C(=O)c3ccccc3)cc2)s1	-1.06
COc1ccc(S(=O)(=O)N(CC(=O)N2CCCCC2)c2cc(Cl)ccc2OC)cc1OC	-1.59
CC(C)C[C@H](NC(=O)c1ccc(N(C)C)nc1)C(=O)NCC#N	2.22

SMILES	% Inhibition @ 10 uM [%]
N#CCNC(=O)C(CC1CCCCC1)C(=O)NCc1cccc([N+](=O)[O-])c1 (stereo not drawn)	-8.82
COCCN(CCOC)c1ncnc2c1cnn2-c1ccccc1	6.74
COc1ccc(C(=O)c2c[nH]cn2)cc1	-4.75
CCC(C)c1ccc(OCCOc2ccc(C=C3C(=O)NC(=O)NC3=O)cc2)cc1 (stereo not drawn)	4.55
C1CCN(CCNC2C3CC4CC(C3)CC2C4)CC1 (stereo not drawn)	-4.75
COCCCNC(=O)CCCCCNS(=O)(=O)c1ccc(Br)cc1	2.84
CC(=O)NC(Cc1ccccc1F)C(=O)N[C@@H](CCc1ccccc1)C(=O)c1nc2ccccc2o1 (stereo partly drawn)	-6.98
CC1=C(C(=O)OCCOc2ccccc2)C(c2ccsc2)NC(=O)N1C (stereo not drawn)	0.289
O=C(Nc1ccc2oc(-c3ccc(F)cc3)nc2c1)c1ccccc1	-15.9
Cc1nc2ccc(S(=O)(=O)N(C)CC(=O)N3CCN(C4CCCCC4)CC3)cc2s1	1.15
CC(NC(=O)C(=O)NCc1ccco1)c1ccccc1 (stereo not drawn)	0.131
CCOc1ccccc1C(=O)Nc1ccccc1OC	-1.21
O=C(NCc1ccc(Cl)cc1)Nc1cccs1	0.596
Cc1ccc(C(=O)C2=C(N)OC3=C(C(=O)CC(C)(C)C3)C2c2ccccc2Cl)cc1 (stereo not drawn)	-6.6
O=C(Cn1cnc2onc(-c3ccc(Cl)cc3)c2c1=O)NCCC1=CCCCC1	3.54
O=C(O)c1ccccc1C(=O)Nc1ccc(O)cc1	-4.96
O=C(O)c1ccc(CS(=O)(=O)c2ccccc2)o1	-0.657
COc1ccccc1CC(=O)N(Cc1nc(-c2ccc(Cl)cc2)no1)C(C)C	-2.75
Cc1sc2ncn(CC(=O)NCc3ccccn3)c(=O)c2c1S(=O)(=O)N1CCOCC1	-0.363
C=CCNC(=O)c1sc2nc(C)c(Cl)c(C)c2c1N	2.99
CCOC(=O)c1ccccc1NC(=O)c1cccc(OC)c1	-3.65
Cc1ccc(Cc2c(C)nc3c(C(=O)N4CCc5ccccc5C4)cnn3c2C)cc1	-4.06
CCCCNc1ncnc2sc3c(c12)CCCC3	-2.18
COC(=O)c1ccc(CN2CCN(c3ccccc3)CC2)cc1	1.62
Cc1ccc(N2C(=O)CC(NCc3ccc4c(c3)OCO4)C2=O)cc1 (stereo not drawn)	-9.2

SMILES	% Inhibition @ 10 uM [%]
CCOc1ccc(CCNC(=O)c2nn(C)c3c2CS(=O)(=O)c2ccccc2-3)cc1	-0.205
Cc1nn(Cc2ccc(Cl)c(Cl)c2)c(C)c1NC(=O)c1ccc2c(c1)OCO2	-8.56
Cc1cc(C)cc(NC(=O)C2COc3ccccc3O2)c1 (stereo not drawn)	-2.74
O=Cc1cn(CCOc2ccccc2)c2ccccc12	-0.971
CCC(C)(C)C(=O)N1CCN(c2ccccc2)CC1	-3.19
CS(=O)(=O)c1ccc(-c2nnn(CC(=O)NCc3ccc(F)cc3)n2)cc1	-3.07
O=C(CCc1ccccc1)Nc1ccccc1NC(=O)CCc1ccccc1	4.57
O=C(Nc1ccc(NC(=O)c2ccc(Cl)cc2Cl)cc1)c1ccccc1F	0.177
COc1ccccc1Nc1cccc2nonc12	-0.996
CCOC(=O)c1c(NC(=O)C2=C(C)N=C3CCCC(O)=C3C2c2cccnc2)sc2c1CCCC2 (stereo not drawn)	5.76
Cc1sc(NC(=O)c2cccnc2Cl)nc1-c1ccccc1	20.2
CC1=CC(C)(C)N(C(=O)c2ccc([N+](=O)[O-])cc2)c2ccccc21	-2.42
Cc1nnc(NC(=O)CSc2nnc(-c3ccco3)c(-c3ccco3)n2)s1	-0.386
COc1cccc(C(O)c2cnc(C(C)C)n2C)c1OC (stereo not drawn)	-3.32
COc1ccc(CN2C(=O)CS/C2=N/N=C/c2cccs2)cc1	0.279
CC(C)NC(=O)C1CCN(c2cnccn2)CC1	-0.946
C=CC1CCC(O)C(N(Cc2ccccc2)S(=O)(=O)c2ccc3ccccc3c2)C1 (stereo not drawn)	0.906
CCOCCCNC(=O)C1CCN(c2nnc(C)c3c(C)n(-c4ccc(C)cc4)nc23)CC1	4.4
CCCCSc1nnc(-c2ccc(Br)cc2)o1	11.7
CCc1ccc(N2C(=O)C(Cl)=C(Nc3ccccc3OC)C2=O)cc1	-2.88
NC(=O)c1ccccc1NC(=O)C1CC=CCC1C(=O)O (stereo not drawn)	1.15
COc1ccc(-c2cc(-c3ccccc3)nc(SCC(N)=O)c2C#N)cc1	3.06
Cc1nc2c(c(C)nn2-c2ccccc2)c(C)c1CCC(=O)NC(C)c1ccc2c(c1)OCCO2 (stereo not drawn)	4.14
Cc1c(CN2CCC(O)(c3ccc(Br)cc3)CC2)c(=O)n(-c2ccccc2)n1C	-1.21
O=C(O)c1cccc(-c2ccc(Cl)cc2)c1C(=O)O	-7.35

SMILES	% Inhibition @ 10 uM [%]
O=C(NCc1ccc2c(c1)OCO2)C1CCC(CNS(=O)(=O)c2ccccc2)CC1 (stereo not drawn)	-2.72
Cc1ccc(CNC(=O)C2COc3ccccc3O2)cc1 (stereo not drawn)	1.62
CC(O)c1nc2cc([N+](=O)[O-])ccc2n1C (stereo not drawn)	-7.15
CCOc1ccc(NC(=O)c2ccc(OC(F)F)cc2)cc1	-7.56
CCOC(=O)C1=C(CC)OC(N)=C(C#N)C12C(=O)Nc1ccc(Br)cc12 (stereo not drawn)	0.467
O=C(CNS(=O)(=O)c1ccc(C(=O)N2CCCCC2)cc1)N1CCCCC1	2.25
CCN1C(=O)/C(=C\c2cc(C)n(-c3cc(C)ccc3OC)c2C)C(C(=O)OC)=C1C	4.85
O=C(COc1ccccc1)NCc1nnc(S)n1-c1cccc(C(F)(F)F)c1	4.95
COc1ccc(S(=O)(=O)N(Cc2ccccc2)Cc2ccccc2)cc1OC	3.66
NS(=O)(=O)c1ccc(C2(O)C=Nc3ccccc32)cc1 (stereo not drawn)	-2.78
CSCCC(C(=O)Nc1cccc(Cl)c1)N1C(=O)c2ccccc2C1=O (stereo not drawn)	-4.76
CCOC(=O)c1c(S(=O)(=O)Nc2ccc(C)cn2)c(C)n(C)c1C	-2.9
O=c1c(Cl)c(NC2CCCCCC2)cnn1C12CC3CC(CC(C3)C1)C2	-5.29
O=C(Nc1ccc(Cl)c([N+](=O)[O-])c1)c1cccs1	-1.62
Cn1c(=O)c2c(nc(NCc3ccco3)n2Cc2ccccc2Br)n(C)c1=O	-3.05
COc1cc(/C=C2\SC(=O)N(Cc3ccc(F)cc3)C2=O)cc(Br)c1OC	-1.6
COc1ccc(-c2ccccc2)cc1NCc1ccc(C)s1	-0.603
COc1ccc(CNc2nc(-c3ccco3)nn2C(=O)CCc2ccccc2)cc1	-1.47
CC[n+]1ccc(C2C(C#N)=C(N)OC(C)=C2C(=O)O)cc1 (stereo not drawn)	-3.77
COc1ccc(N2CCN(C(=O)c3cc(C)on3)CC2)cc1	1.39
CC1(C)CC(=O)C2=C(C1)c1c(ccc3ccccc13)NC2c1ccc2c(c1)OCO2 (stereo not drawn)	13.8
Cc1ccc(C(=O)Nc2cccc(Cl)c2Cl)cc1[N+](=O)[O-]	3.03
CCCC(=O)N1CCN(c2ccc([N+](=O)[O-])cc2F)CC1	0.392
c1ccc(CCN(Cc2ccccc2)Cc2ccncc2)cc1	-2.95
